# From PMC4336329 (PLoS ONE, 2015)
# Screen size: about 310,000 compounds; about 2,200 (0.71%) showed an effect of 50% or more. The effect is printed as a negative number. The list shows a part of the results.
# Target: human ether-à-go-go-related gene (hERG) potassium channel (human, UniProt Q12809)
# Experiment: primary screen, population patch clamp on CHO cells stably expressing hERG
# human ether-à-go-go-related gene (hERG) potassium channel, sequence (Q12809 whole entry, looked up): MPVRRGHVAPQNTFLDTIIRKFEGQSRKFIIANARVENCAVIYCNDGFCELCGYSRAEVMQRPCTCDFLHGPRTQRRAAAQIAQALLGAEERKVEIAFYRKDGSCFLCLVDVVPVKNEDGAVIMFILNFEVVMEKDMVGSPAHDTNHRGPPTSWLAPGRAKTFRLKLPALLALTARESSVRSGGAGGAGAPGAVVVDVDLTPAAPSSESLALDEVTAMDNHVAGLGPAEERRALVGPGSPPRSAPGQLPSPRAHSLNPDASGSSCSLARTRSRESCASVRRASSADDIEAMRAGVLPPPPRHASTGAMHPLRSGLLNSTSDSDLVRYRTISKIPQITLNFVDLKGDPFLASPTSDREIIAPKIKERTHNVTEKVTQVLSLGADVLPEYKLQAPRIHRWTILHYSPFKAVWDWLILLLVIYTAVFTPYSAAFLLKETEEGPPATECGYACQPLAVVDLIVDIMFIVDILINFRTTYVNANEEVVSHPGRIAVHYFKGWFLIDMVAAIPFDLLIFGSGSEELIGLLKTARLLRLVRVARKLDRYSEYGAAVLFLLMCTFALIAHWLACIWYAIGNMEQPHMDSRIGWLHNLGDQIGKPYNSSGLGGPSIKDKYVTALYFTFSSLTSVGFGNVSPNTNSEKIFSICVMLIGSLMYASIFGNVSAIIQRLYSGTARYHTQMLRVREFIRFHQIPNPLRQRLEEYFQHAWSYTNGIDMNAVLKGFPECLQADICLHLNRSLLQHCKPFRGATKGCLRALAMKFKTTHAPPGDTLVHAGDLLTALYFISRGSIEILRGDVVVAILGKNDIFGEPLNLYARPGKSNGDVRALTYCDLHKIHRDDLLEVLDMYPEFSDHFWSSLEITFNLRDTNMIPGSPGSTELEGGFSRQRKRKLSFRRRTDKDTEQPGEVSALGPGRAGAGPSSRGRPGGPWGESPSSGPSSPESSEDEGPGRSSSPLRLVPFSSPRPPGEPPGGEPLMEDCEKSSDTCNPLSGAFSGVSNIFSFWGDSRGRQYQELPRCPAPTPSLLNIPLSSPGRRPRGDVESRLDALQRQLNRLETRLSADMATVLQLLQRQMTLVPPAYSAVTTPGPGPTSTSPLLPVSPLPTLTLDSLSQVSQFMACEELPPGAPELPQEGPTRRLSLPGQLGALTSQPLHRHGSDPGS
row,SMILES,"hERG current change (%, negative = inhibition) at 1uM [%]"
1,CCCCNC(=O)C1CCCN(S(=O)(=O)CC)C1 (centres unmarked),5.46
2,Cc1ccc(NC(=O)c2cc(C(=O)c3cc(Cl)ccc3O)cn(-c3ccc(C)cc3)c2=O)cc1,10.9
3,Cc1cc(C(=O)Nc2ccccc2C)c2ccccc2n1,10.8
4,COc1ccc(-c2cc3ccccc3oc2=O)cc1NC(=O)c1ccc(Br)o1,-4.09
5,CCn1ncc(/C=N/NS(=O)(=O)c2ccc(Cl)cc2)c1C,-4.05
6,Cc1ccc(C(OCC(O)CN2CCCCC2)c2ccccc2)cc1 (centres unmarked),-68.6
7,OCC1(Cc2ccc(F)cc2)CCCN(CCCC(F)(F)F)C1 (centres unmarked),-0.727
8,CCC(C)(C)C1CCC2(CC1)NC(=O)N(CC(=O)NCCc1c[nH]c3ccccc13)C2=O (centres unmarked),3.45
9,CN(CC(=O)Nc1ccc(Cl)cc1)Cc1cc(=O)n2ccsc2n1,-3.04
10,O=C(NCc1ccccc1Cl)c1ccncc1,12.3
11,O=C(CN1C(=O)C2CC=CCC2C1=O)Nc1ccc(Br)cc1 (centres unmarked),-1.7
12,C/C(=N\NC(=O)c1ccncc1)c1c(O)n(Cc2ccccc2)c(=O)[nH]c1=O,17.5
13,CCOC(=O)Cc1cc(=O)[nH]c(/N=C(\N)Nc2ccc(C)c(C)c2)n1,8.62
14,Cc1c(C(=O)N2CCCC2)c(S(=O)(=O)N2CCCCC2)c(C)n1C,5.32
15,CC(C)C1CC(O)(C2(O)CCCCC2)ON1 (centres unmarked),6.16
16,CCOc1ccc(/C=N/n2c(SC)nnc(C(C)(C)C)c2=O)cc1,12.2
17,CC(=O)Nc1ccccc1C(=O)C(=O)Nc1ccc(C(=O)N2CCOCC2)cc1,9.76
18,C/C(=N/NS(=O)(=O)c1ccccc1)c1ccc(NC(=O)C2CC2)cc1,13.3
19,COCCn1c(=O)[nH]c2cc(C(=O)NCCN3CCN(c4ccccc4F)CC3)ccc2c1=O,12.2
20,COc1ccc(N2CC(C(=O)NCCc3ccc(OC)c(OC)c3)CC2=O)cc1 (centres unmarked),-5.45
21,Cc1csc(SCC(=O)Nc2sccc2C#N)n1,6.92
22,NC12CCc3c(no[n+]3[O-])C1(O)CC(c1ccccc1)=[N+]2[O-] (centres unmarked),16.3
23,CNC(=S)Nc1cc(C(=O)N2CCCC2)ccc1N1CCCC1,2.01

row,SMILES,"hERG current change (%, negative = inhibition) at 1uM [%]"
1,CC(=O)C1C2c3ccccc3OC1(C)N=c1s/c(=C/c3cn(C)nc3C)c(=O)n12 (centres unmarked),5.83
2,O=C(Nc1ccc(O)cc1)c1ccccc1OCc1ccccc1,16
3,Cc1csc2c(=O)sc(NC(=O)c3ccc(F)cc3Cl)nc12,8.64
4,CCN(CCCNC(=O)CNC(=O)c1nn(-c2ccc(OC)cc2)c(=O)c2ccccc12)c1cccc(C)c1,9.48
5,Cc1ccc(NC(=O)C2CCN(C(=O)c3ccccc3C)CC2)cc1,12.6
6,CCOc1ccc(NC(=S)N2CCC(NC(=O)C3CCCCC3)CC2)cc1,-5.73
7,COc1cc(NC(=O)c2cc(-c3cccnc3)nc3ccc(Br)cc23)cc(OC)c1,5.26
8,C[C@@H]1CC=C[C@H]2[C@H]1C(=O)N(Cc1ccccc1)[C@H]2c1ccc2ccccc2c1,8.96
9,CCCCC(=O)Nc1ccc(N2CCN(C(=O)CC)CC2)cc1,6.35
10,CCOC(=O)N1CCN(C(=S)NC)CC1,9.92
11,COc1nc(NCCc2ccc(OC)c(OC)c2)nc(Nc2ccccc2)n1,7.37
12,COc1ccc(Cn2ccnc2SCC(=O)NC2CCCC2)cc1,14.6
13,Cn1c(-c2cccc([N+](=O)[O-])c2)cnc1NCc1cccc([N+](=O)[O-])c1.O=C(O)C(=O)O,-28.2
14,Cc1ccc2nc(-c3ccc(NC(=O)c4ccco4)cc3)[nH]c2c1,9.44
15,Br.CCn1c(=N)n(CC(=O)c2ccc(OC)cc2)c2ccccc21,-0.629
16,C/C(=N/Nc1nc(-c2ccc(Cl)cc2)cs1)c1cccs1,10.4
17,COc1ccc(CCNC(=O)CCSc2nc(-c3ccco3)cc(C(F)(F)F)n2)cc1,8.38
18,O=C(Nc1cn(-c2ccccc2)nc1-c1ccc(F)cc1)c1ccccc1,17.7
19,Cc1ccc(C(C(=O)NC2CCCC2)N(Cc2cccs2)C(=O)CNC(=O)c2cccs2)o1 (centres unmarked),6.98
20,CCOc1ccc(CCNC(=O)CSc2nc3ncc(Cl)cc3[nH]2)cc1OCC,9.08
21,Oc1ccc(O)c(Cc2nc3ccccc3[nH]2)c1,0.773
22,Cc1nc(N)sc1-c1csc(N(C)c2ccc(O)cc2)n1,6.5
23,CC(=O)O.CC(=O)Oc1ccc2c(c1)OC(c1ccccc1)CC21CC(C)(C)NC(=O)N1 (centres unmarked),9.35

row,SMILES,"hERG current change (%, negative = inhibition) at 1uM [%]"
1,CCCCN=C1NC(=O)C(CC(=O)NCCc2ccc(OC)cc2)S1 (centres unmarked),13.4
2,COC(=O)Cn1cnc2c(C#N)c3n(c2c1=O)CCCC3,-3.24
3,CCCCCCN1CC(O)=C(c2nc3ccccc3[nH]2)C1=N,-7.01
4,CC1(C)CC(=O)C(C(C2=C(O)CC(C)(C)CC2=O)c2ccc(Br)s2)C(=O)C1 (centres unmarked),4.88
5,O=C(Cc1c(F)cccc1Cl)Nc1ccc(S(=O)(=O)NCC2CCCO2)cc1 (centres unmarked),10
6,N#Cc1ccc(N2C(=O)[C@@H]3C(C(=O)c4ccc5ccccc5n4)=NN[C@@H]3C2=O)cc1,11.7
7,O=C(Nc1ccc([N+](=O)[O-])cc1)c1ccccc1F,-6.63
8,Cc1csc(NC(=O)C(NS(=O)(=O)c2ccc(Br)s2)c2ccccc2)n1 (centres unmarked),10.4
9,Cc1nn2c(-c3ccncc3)ccnc2c1Br,0.782
10,COC(=O)[C@@H]1Cc2c([nH]c3ccccc23)C(C)N1C(=O)c1ccccc1 (some centres unmarked),12.7
11,COc1ccc(OCCN(C)Cc2c(O)ccc3ccccc23)cc1,17.1
12,CCc1nnc(NC(=O)CCC(=O)Nc2ccc(Cl)cc2)s1,14.4
13,COc1ccccc1N1CCN(C(=O)/C=C/c2cccs2)CC1,2.09
14,CCCc1nnc(NC(=O)CCC(=O)NC2CCCCCC2)s1,5.87
15,Cc1cc(C(=O)CCl)c(C)n1Cc1ccco1,6.53
16,CC1CCCCC12NC(=O)N(CC(=O)c1ccc(Cl)s1)C2=O (centres unmarked),5.11
17,Cc1cccc(/C(N)=N/OC(=O)COc2ccc(Cl)c(C)c2)c1,11.8
18,COc1cc(/C=C/C(=O)OCC(=O)NC(=O)NC(C)C)cc(OC)c1OC,15.8
19,CN1CCN(C(=O)/C(=C\c2cccnc2)NC(=O)c2cccc(Br)c2)CC1,21.6
20,O=C(C1CCCN1C(=O)c1cccs1)N1CCc2ccccc21 (centres unmarked),16.6
21,COc1ccc(CCNS(=O)(=O)c2cccc(C)c2)cc1OC,13.6
22,CC(C)NS(=O)(=O)c1ccc(Br)c(C(=O)OC(C)C(=O)NC2CCCCC2C)c1 (centres unmarked),13.8
23,CN1CCC(=O)N([C@H](CC#N)c2ccccc2)CC1,16.3

row,SMILES,"hERG current change (%, negative = inhibition) at 1uM [%]"
1,Cc1ccccc1NC(=O)Cc1nc(CN(C)CC(=O)Nc2cccc(F)c2)cs1,-3.77
2,COc1ccc(NS(=O)(=O)c2c(C)cc(C)cc2C)cn1,10.4
3,Cc1cccc(CCN=C(N)NS(=O)(=O)c2ccccc2)c1,5.48
4,O=C(c1ccc2c(c1)OCO2)N1CCN(c2cccc(C(F)(F)F)c2)CC1,4.94
5,COc1ccc(C(=O)Nc2ccc3c(c2)nc2n3CCSC2)cc1,0.827
6,Cc1ccc(S(=O)(=O)NNc2nnc(C)c(=O)[nH]2)cc1,11.6
7,COc1ccc(S(=O)(=O)N2CCC3(CC2)OCCN3S(=O)(=O)c2c(C)cc(C)cc2C)cc1,7.22
8,Cc1ccc(O)c(C(=O)CC(=O)c2cccc(F)c2)c1,15.1
9,Cn1cccc1Cc1nnc(SCC(=O)Nc2ccc(F)cc2F)n1-c1ccc(F)cc1,-4.13
10,Cc1ccsc1/C=N/NC(=O)CSCc1ccc(Cl)cc1,10.7
11,CCN1C(=O)C2(SC(NC(C)=O)=NN2C(C)=O)c2cc(C)cc(C)c21 (centres unmarked),10.2
12,CC1=NN(C(N)=S)C(=O)C1N=Nc1c(C)n(C)n(-c2ccccc2)c1=O (centres unmarked),11.3
13,CCOc1ccc(-n2nc(C(=O)NC3CCCCC3)c3ccccc3c2=O)cc1,21.8
14,O=C(NC1CCCCCCC1)c1ccco1,-5.01
15,Cc1csc(NC(=O)Cn2nc(C)c([N+](=O)[O-])c2C)n1,6.55
16,CSc1ncc(C(=O)NCCCc2ccccc2)c(C)n1,4.27
17,CCN(c1ccccc1)S(=O)(=O)c1ccc(OC)c(NC(=O)CN2C(=O)NC(C)(C)C2=O)c1,13.2
18,CC(=O)N1N=C(c2cccc(O)c2)CC1c1cccs1 (centres unmarked),16.9
19,COc1ccccc1N1CCN(C(=O)C2CC2)CC1,14.2
20,CCOc1ccccc1NC(=O)CSc1nnc(-c2ccco2)o1,8.2
